# Measured values as given in PubChem BioAssay AID463173 (ICCB-Longwood Screening Facility, Harvard Medical School, 2010).
# In all, about 52,000 compounds went through this assay and about 1,700 (3.3%) were called active. Cut-off read from the data, not from the text of the source: active = survival mostly below about 52% (no sharp cut-off); inactive = mostly above about 56%. This is one part of the list.
# Tested on: Wild type
# Test: S. aureus survival, RN4220 and DeltatarO strains – OD600, teichoic acid synthesis inhibitors, primary screen (AID 463173)
# Conditions: S. aureus RN4220 wild type/DeltatarO growth, OD600, 18 h, active compounds read low, screened at 18.75 µg/mL (by protocol)
row,SMILES,survival
1,CC(=O)Oc1cn(C(C)=O)c2ccccc12,inactive: 84%
2,COc1ccc(C)cc1NC(=O)CN(c1cc(C(F)(F)F)ccc1Cl)S(C)(=O)=O,inactive: 76%
3,CC(Sc1nnc2c(n1)[nH]c1ccccc12)C(=O)NC(C)(C)C (stereo not drawn),inactive: 108%
4,CC(=O)c1c(C)oc2ccc(N(C(=O)Oc3ccccc3)S(=O)(=O)c3ccc(C(C)(C)C)cc3)cc12,inactive: 132%
5,O=C(COc1ccc(Cl)cc1Cl)NC1CCSC1=O (stereo not drawn),inactive: 129%
6,COc1cc(NC(=O)c2cc(Cl)c(OC)c(Cl)c2)ccc1NC(=O)c1cc2ccccc2o1,inactive: 99%
7,COc1ccccc1CNC(=O)CCn1c(=O)c2ccccc2n(CC(=O)Nc2ccc(C)cc2C)c1=O,inactive: 91%
8,Cc1cc(OC(=O)c2cc(-c3ccc4c(c3)OCCO4)on2)ccc1Cl,active: -6%
9,COc1ccc2c(c1)-c1nc(NC(=O)c3cc(Cl)ccc3OC)sc1CC2,inactive: 74%
10,Cc1ccc(CN2CCCn3nc(C(=O)NCCc4ccc(Cl)cc4)cc3C2=O)cc1,inactive: 73%
11,CN1c2ccccc2-c2nc(SCC(=O)Nc3ccccc3C(F)(F)F)ncc2S1(=O)=O,inactive: 69%
12,Cc1ccc(CSc2nc3ccc(NC(=O)C(C)C)cc3s2)cc1,inactive: 97%
13,CCc1nn2c(=O)c(S(=O)(=O)Nc3ccc(OC)c(Cl)c3)c(C)nc2s1,inactive: 67%
14,O=C(NCC(c1cccnc1)N1CCN(Cc2ccccc2)CC1)C(=O)Nc1ccc(Cl)cc1 (stereo not drawn),inactive: 79%
15,COc1ccc(C(CC(=O)Nc2ccc(C)c(C)c2)N2Cc3ccccc3C2=O)cc1OC (stereo not drawn),inactive: 66%
16,CCN(Cc1ccccc1)C(=O)Cn1c(=O)n(Cc2ccccc2)c(=O)c2c1c1cc(OC)ccc1n2C,inactive: 64%
17,Cc1ccc2c(=O)cc(CSc3ccccc3)[nH]c2c1C,inactive: 94%
18,Cc1ccc(CSCC(=O)N2CCN(c3ccc(F)cc3)CC2)cc1,inactive: 79%
19,CC(C)c1ccc(S(=O)(=O)c2nnn3c2nc(NC2CCCC2)c2sccc23)cc1,inactive: 88%
20,CC(=O)c1cccc(S(=O)(=O)NCCc2csc3nc(-c4ccc(F)cc4)nn23)c1,inactive: 75%

row,SMILES,survival
1,O=C1CCC(C2CCC(=O)N2)N1 (stereo not drawn),inactive: 99%
2,Cc1nc(CC(=O)Nc2cccc(C)c2C)cs1,inactive: 86%
3,COc1ccc(C(=O)NCc2ccc3c(c2)CCN3C(=O)c2ccncc2)cc1,inactive: 75%
4,COc1ccc(OC)c(NC(=O)c2c(NCc3ccc(C)o3)sc3c2CCC(C)C3)c1 (stereo not drawn),inactive: 64%
5,O=S(=O)(c1ccc2ccccc2c1)n1nc(-c2ccco2)nc1NCc1ccc(F)cc1,inactive: 116%
6,Cc1cc(C)cc(C(=O)N(Cc2nc(-c3ccc(Cl)cc3)no2)C(C)C)c1,inactive: 17%
7,CCOc1ccccc1NC(=O)CN1C(=O)CC(c2ccco2)Sc2ccccc21 (stereo not drawn),inactive: 92%
8,Cc1cc(NC(=O)CCCn2c(C)c3cnn(-c4ccccc4)c(=O)c3c2C)ccc1Br,inactive: 76%
9,CCN(C(=O)CSc1ncc(S(=O)(=O)c2ccc(C)c(Cl)c2)c(=O)[nH]1)c1cccc(C)c1,inactive: 95%
10,COCCNC(=O)C(=O)NCC(c1ccc2c(c1)OCO2)N1CCOCC1 (stereo not drawn),active: -3%
11,COCCCNC(=O)c1c(NC(=O)c2nc(S(C)(=O)=O)ncc2Cl)sc2c1CCCC2,inactive: 75%
12,Cc1ccc(C(=O)Nc2ccc(-c3nc4ccccc4s3)c(O)c2)c(C)c1,inactive: 91%
13,CCCCN(C)CCNC(=O)c1cc(=O)[nH]c2ccc(S(=O)(=O)N3CCCCCC3)cc12,inactive: 71%
14,Cc1cc(NC(=O)c2ccc(-c3ccc(Cl)cc3)o2)cc(-c2nc3ncccc3o2)c1O,inactive: 73%
15,Cc1ccc(CNC(=O)c2cnc(N(C)C)nc2)cc1,inactive: 126%
16,COc1ccc(-c2nc(C(=O)Nc3cccc(C(C)=O)c3)nn2-c2ccc(Cl)cc2)cc1,inactive: 113%
17,Cc1ccccc1C(C(=O)Nc1ccc(F)cc1)N(Cc1ccco1)C(=O)Cn1nnc2ccccc21 (stereo not drawn),inactive: 122%
18,Cc1ccc(NC(=O)c2ncn(-c3ccccc3)n2)cc1Cl,inactive: 83%
19,COc1ccc(NC(=O)c2oc3ccccc3c2NC(=O)c2cc(=O)c3c(C)cc(C)cc3o2)cc1,inactive: 84%
20,Cc1nc(-n2nc(C)c(Cc3ccccc3Cl)c2C)sc1C(=O)N1CCCCC1C (stereo not drawn),inactive: 71%

row,SMILES,survival
1,Cc1ccc(NC(=O)CS(=O)(=O)c2nc(-c3ccc(C)cc3)cn2-c2ccc(C)cc2)cc1,inactive: 93%
2,Cc1ccc(CSc2n[nH]c(-c3ccccc3O)n2)cc1,inactive: 105%
3,CCOc1ccccc1NC(=O)CC1C(=O)NCCN1C(=O)c1ccc(F)cc1 (stereo not drawn),inactive: 71%
4,COc1ccc(OC)c(Nc2nc3ccccc3n3c(C)nnc23)c1,inactive: 83%
5,CCC(C(=O)O)C(C)CC(=O)Nc1ccccc1Cl (stereo not drawn),inactive: 110%
6,COc1ccc(COC(=O)c2[nH]c3c(c2C)C(=O)CC(c2ccc(OC)c(OC)c2)C3)cc1 (stereo not drawn),inactive: 92%
7,C#CC(C)(CC)NC(=O)Cn1nnc(-c2ccc(OCc3ccccc3F)cc2)n1 (stereo not drawn),inactive: 100%
8,COc1ccc(-c2nc(CN3CCC(C(=O)NCCCN4CCN(c5ccccc5F)CC4)CC3)c(C)o2)cc1OC,inactive: 91%
9,O=C(Nc1cc(-c2nc3cc(Cl)ccc3o2)ccc1Cl)c1cccs1,inactive: 79%
10,CC1CCCC(C)N1C(=O)Cn1c(SCC(=O)NCc2ccco2)nc2ccccc21 (stereo not drawn),inactive: 102%
11,Cc1cccc(-c2nc3ccccc3o2)c1,inactive: 119%
12,COCCCNC(=O)c1cc2n(n1)CCCN(Cc1ccc(C)cc1)C2=O,inactive: 91%
13,O=C(CSc1nnc(CNC(=O)c2c(F)cccc2Cl)o1)Nc1ccccc1F,inactive: 92%
14,O=C1NCCCC1C(=O)Nc1ccncc1 (stereo not drawn),inactive: 100%
15,O=C(N=C1SCC(=O)N1c1ccccc1)c1ccco1,inactive: 105%
16,CCC(=O)N1c2ccccc2CC1C(=O)NCc1ccccc1C (stereo not drawn),inactive: 140%
17,COc1ccc(OC)c(NC(=O)c2cc3c(s2)-c2ccccc2SC3)c1,inactive: 65%
18,COc1ccccc1-c1c(C)nn2c(N3CCN(c4cccc(Cl)c4)CC3)cc(C)nc12,inactive: 49%
